Results as given in publication PMC4336329 (PLoS ONE, 2015).
The whole screen tested about 310,000 compounds, of which about 14,000 (4.5%) showed an effect of 50% or more. Effects have a minus sign here. The list shows a part of the results.

Each compound was assayed against human ether-à-go-go-related gene (hERG) potassium channel (human, UniProt Q12809) (assay: primary screen, population patch clamp on CHO cells stably expressing hERG).
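Also: peak tail current of the secondary pulse compared with the same well before compound.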

Sequence of human ether-à-go-go-related gene (hERG) potassium channel (Q12809 whole entry, looked up): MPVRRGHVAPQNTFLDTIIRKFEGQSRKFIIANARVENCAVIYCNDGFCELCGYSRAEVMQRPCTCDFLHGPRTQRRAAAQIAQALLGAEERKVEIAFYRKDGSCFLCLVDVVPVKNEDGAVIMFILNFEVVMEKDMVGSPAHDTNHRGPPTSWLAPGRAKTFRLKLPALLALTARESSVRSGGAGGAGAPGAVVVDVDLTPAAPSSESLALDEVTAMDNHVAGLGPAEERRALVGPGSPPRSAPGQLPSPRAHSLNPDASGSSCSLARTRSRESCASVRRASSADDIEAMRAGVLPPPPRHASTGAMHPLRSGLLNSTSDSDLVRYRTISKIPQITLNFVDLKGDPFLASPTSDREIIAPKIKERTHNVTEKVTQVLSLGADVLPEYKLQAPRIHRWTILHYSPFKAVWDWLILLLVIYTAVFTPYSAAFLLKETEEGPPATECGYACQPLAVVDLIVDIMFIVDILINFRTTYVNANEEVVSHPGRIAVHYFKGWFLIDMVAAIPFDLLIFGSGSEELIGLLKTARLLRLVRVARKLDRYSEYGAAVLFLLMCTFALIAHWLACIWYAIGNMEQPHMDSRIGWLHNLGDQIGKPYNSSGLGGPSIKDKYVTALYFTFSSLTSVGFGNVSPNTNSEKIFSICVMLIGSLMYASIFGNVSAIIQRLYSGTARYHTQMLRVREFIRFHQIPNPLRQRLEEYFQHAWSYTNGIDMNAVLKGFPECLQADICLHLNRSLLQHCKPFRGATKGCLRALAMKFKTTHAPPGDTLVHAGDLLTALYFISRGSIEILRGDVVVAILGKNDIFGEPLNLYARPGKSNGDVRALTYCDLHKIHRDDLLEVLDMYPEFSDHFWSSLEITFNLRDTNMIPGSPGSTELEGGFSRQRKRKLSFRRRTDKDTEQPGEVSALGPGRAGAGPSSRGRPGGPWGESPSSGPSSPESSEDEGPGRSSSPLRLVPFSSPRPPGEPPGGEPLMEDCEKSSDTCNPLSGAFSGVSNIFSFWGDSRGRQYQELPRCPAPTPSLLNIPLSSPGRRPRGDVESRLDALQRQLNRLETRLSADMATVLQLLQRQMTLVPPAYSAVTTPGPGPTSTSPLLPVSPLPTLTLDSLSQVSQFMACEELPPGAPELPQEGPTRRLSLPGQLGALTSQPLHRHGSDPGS

Row | Structure (SMILES) | hERG current change (%, negative = inhibition) at 10uM [%]
1 | Cc1cc(C)c(OCC(=O)Nc2ccc(NC(=O)c3ccco3)cc2)c([N+](=O)[O-])c1 | 22.7
2 | O=C(Nc1nnc(CC(=O)N2CCOCC2)s1)c1cccs1 | 15.9
3 | O=C(O)C(=O)O.O=C(c1ccccc1F)N1CCN(Cc2cccc(Cl)c2)CC1 | -25.4
4 | [N-]=[N+]=NCC/C=C\C1NS(=O)(=O)OCC1O (stereo not shown) | 8.7
5 | CC(C)(C)c1csc(NC(=O)Cn2c(=O)oc3ccccc32)n1 | -26.1
6 | CN(CC(=O)NC1CCN(Cc2ccccc2)CC1)S(=O)(=O)c1ccc(Br)s1 | -18
7 | O=C(O)COCC(=O)NCc1nc(-c2ccc(C(F)(F)F)cc2)no1 | 19.1
8 | CN(CC(=O)Nc1ccc(F)c(F)c1F)C(=O)CC1OC(=O)c2ccccc21 (stereo not shown) | -27.6
9 | COc1cccc(CN2CC(C(=O)NCCCn3ccnc3C)CCC2=O)c1 (stereo not shown) | 15.1
10 | Cc1ccc(CNC(=O)CN2CCN(c3ccc(F)cc3)CC2)cc1 | -50.8
11 | COC(=O)C1=C(C)N(c2ccc(S(N)(=O)=O)cc2)C(=O)C1 | 7.89
12 | CCOc1ccc(C(=O)C(C)OC(=O)Cn2c(C)csc2=O)cc1 (stereo not shown) | -60.1
13 | Cc1cc(F)ccc1S(=O)(=O)N(C(=O)c1ccncc1)c1ccc(OC(=O)c2ccncc2)cc1 | -2.62
14 | CCC(=O)Nc1ccc(C(=O)NCc2ccccn2)cc1 | 7.23
15 | O=C(NC1CC1)c1sccc1-n1cccc1 | 8.56
16 | O=C(COc1ccccc1Cl)N1CCCC1 | 5.64
17 | O=C(CN(C(=O)Cn1nnc(-c2ccc(F)cc2)n1)C1CCCC1)NC1CCCC1 | 4.13
18 | CCCn1nc(C(=O)OCC(=O)c2c(N)n(C)c(=O)n(C)c2=O)c2ccccc2c1=O | -22.9
19 | O=C(Nc1ccc2nn(-c3ccc(F)cc3)nc2c1)c1cccnc1 | 10.3
20 | Cc1ccc(C(=O)Nc2ccc(S(=O)(=O)N3CCN(C)CC3)cc2)o1 | 5.28
21 | N#C/C(=C\c1c(N2CCC(C(N)=O)CC2)nc2ccccn2c1=O)C(=O)NC1CCCCC1 | 20.9
22 | O=S(=O)(NCCc1ccccc1)c1ccccc1 | 2.61

Row | Structure (SMILES) | hERG current change (%, negative = inhibition) at 10uM [%]
23 | O=[N+]([O-])/C(=C\Nc1ccc(F)cc1F)S(=O)(=O)c1ccccc1 | 17.8
24 | Cl.O=C(CN1CCCCC1)Nc1cccc(Cl)c1 | -28.8
25 | O=C(COC(=O)c1ccc(Cl)nc1)Nc1nnc(-c2ccccc2)o1 | -0.704
26 | Cc1cc(OCn2ccc(C(=O)O)n2)ccc1Cl | 4.12
27 | O=C(NCc1ccco1)c1ccccc1NS(=O)(=O)c1ccc2c(c1)OCCO2 | -13.8
28 | CCS(=O)(=O)N1CCN(C(=O)c2ccco2)CC1 | 2.66
29 | COc1cccc(C(=O)NCc2cn3ccsc3n2)c1 | 6.73
30 | CCOC(=O)C1=C(C)Nc2ccccc2N=C1NC(=O)c1cccc(S(=O)(=O)N(C)C)c1 | -18.7
31 | CCN(CC1COc2ccccc2O1)C(=O)CN1C(=O)NC(C)(c2ccc(C)cc2)C1=O (stereo not shown) | -28.8
32 | CN(C1CCCCC1)S(=O)(=O)c1ccc(NC(=O)CCC(=O)O)cc1 | 3
33 | Cc1nn(-c2ccccc2)c(Cl)c1/C=C1/C(=N)N2N=C(C(C)C)SC2=NC1=O | 9.87
34 | O=C(COc1ccccc1)N1CCN=C1SCc1ccc(F)cc1 | -27.4
35 | Cc1c(C)c2c(OCC(=O)N[C@@H](C)C(=O)O)cc3c(c2oc1=O)CCC(C)(C)O3 | 16
36 | COc1ccc(C(=O)Nc2ccccc2)cc1NC(=O)c1cccs1 | -74
37 | CC(C)CCOC(=O)C1C(c2ccccc2)C(C(=O)O)C1c1ccccc1 (stereo not shown) | 2.74
38 | CCN(CC)C(=O)/C=C/c1ccccc1 | 6.73
39 | COc1ccc2nc(C)c3c(c2c1)OC(C(C)(Cl)Br)C3 (stereo not shown) | -34
40 | CCn1c(=O)c(C(=O)Nc2ccccc2F)c(O)c2ccccc21 | 17.2
41 | Cc1c(NC(=O)N(C)c2ccccc2)c(=O)n(-c2ccccc2)n1C | 12.6
42 | CCOC(=O)c1ccc(NC(=O)CCNS(=O)(=O)c2ccc3c(c2)oc(=O)n3C)cc1 | 6.45
43 | COc1cc(OC)cc(C(=O)N[C@H](C(=O)Nc2ccc3c(c2)OCO3)C(C)C)c1 | 11
44 | O=C(OCc1nnc(-c2ccccc2)o1)c1cc(S(=O)(=O)N2CCOCC2)c(Cl)cc1Cl | -19.9

Row | Structure (SMILES) | hERG current change (%, negative = inhibition) at 10uM [%]
45 | CCOC(=O)c1[nH]ncc1CN1CCN(Cc2ccc(C)cc2)C(CCO)C1 (stereo not shown) | -38.8
46 | Cc1ccc(/C=N/NC(=O)c2cccc(S(=O)(=O)Nc3ccccc3Cl)c2)o1 | -31
47 | O=C(Oc1cccc(-n2cnnn2)c1)c1ccccc1 | 9.86
48 | O=C(CN(Cc1ccco1)S(=O)(=O)c1ccccc1)N/N=C/c1cccc(O)c1 | -1.69
49 | CCCCCC(=O)N/N=C(\C)c1ccc(Cl)cc1 | 9.87
50 | N#Cc1ccc(Cn2ccnc2C(=O)Nc2ccccc2)cc1 | -87
51 | CC(C)C(=O)Nc1ccc2c(c1)C(=O)N(CCC(=O)O)C2=O | 20.7
52 | COc1ccc(C(=O)Nc2ccccc2C(=O)NCCN2CCOCC2)cc1OC | 2.71
53 | OCCn1c(CSc2nnc(-c3ccco3)n2-c2ccccc2)nc2ccc(Cl)cc21 | -24.2
54 | COc1ccc(Cl)cc1N1C(=O)CN(Cc2cc(OC)c(OC)c(OC)c2)C1=S | 14.3
55 | CC1CCN(CC(O)COC2CC(C)CC(C)(C)C2)CC1.Cl (stereo not shown) | -54.5
56 | CCOc1cc(C(=O)N=c2sccn2C)cc(Br)c1OC | 8.84
57 | COc1ccc(NC(=O)NC2CCCCC2C)cc1 (stereo not shown) | 6.49
58 | Cc1ccc(C(=O)N/N=C\c2c(C)nn(-c3ccccc3)c2Cl)cn1 | -15.7
59 | Cc1cc(C)cc(N2C(=O)N(c3ccccc3C)C3CS(=O)(=O)CC32)c1 (stereo not shown) | 5.12
60 | O=C(CCS(=O)(=O)Cc1ccccc1)Nc1nnc(C(F)(F)F)s1 | 15.8
61 | COC(=O)CNc1nc(Cl)nc(NC2CCCCC2)n1 | 8.02
62 | CN1CCN(c2ccc(-c3ccnn3C(=O)Nc3ccccc3)cc2)CC1 | -11.5
63 | COc1ccc(-c2ccc3c(c2)S(=O)(=O)c2cccc(C(=O)NCCOc4ccccc4)c2C3=O)cc1OC | -3.55
64 | Cc1cccc(N(C(=O)c2ccc(CN3CCOCC3)o2)C(C(=O)NC2CCCCC2)c2ccc(F)cc2)c1 (stereo not shown) | 19.7
65 | CN(CCCNC(=O)c1nn(C)c2c1CS(=O)(=O)c1ccccc1-2)Cc1ccccc1 | -46.9
66 | COc1ccc(C(=O)NCCNc2ccc([N+](=O)[O-])cn2)cc1 | -13.3

Row | Structure (SMILES) | hERG current change (%, negative = inhibition) at 10uM [%]
67 | COc1nccc(C(F)(F)F)c1C(=O)NC(=O)Nc1c(C)cccc1C | -3.84
68 | Cc1ccc(Nc2ncnc3c2oc2ccccc23)cc1 | -6.97
69 | CCCn1c(N2CCN(C(=O)Nc3ccc(Cl)cc3)CC2)nc2ccccc21 | -16.8
70 | CNC(=O)NC(=O)C(OC(=O)Cc1cccc(C(F)(F)F)c1)c1ccccc1 (stereo not shown) | 17
71 | CCOc1ccc(NC(=O)COc2nsnc2N2CCOCC2)cc1 | -41.7
72 | CCn1cc(Cl)c(C(=O)N2N=C(c3ccc4ccccc4c3)CC2c2ccccc2O)n1 (stereo not shown) | 0.0432
73 | COc1ccc(-c2sc3ccccc3c2C#CC2(O)CCCCC2)cc1 | 15
74 | COc1ccc(C2=NOC3(CC(=O)N(c4ccc(F)cc4)C3=O)C2)c(OC)c1 (stereo not shown) | 4.15
75 | Cc1cccc2c1ncc1c(=O)n(-c3ccccc3)[nH]c12 | 11.1
76 | CCOC(=O)C(=O)NNc1ccc(C)cc1 | -2.03
77 | O=C(/C=C/c1ccco1)Nc1sc2c(c1C(=O)O)CCC2 | -2.95
78 | CCC(=O)Nc1ccc(N2CCOCC2)c(S(=O)(=O)Nc2ccc(Cl)cc2)c1 | -25.2
79 | COc1ccc(/C=N/NC(=O)c2ccncc2)cc1CN1CCOCC1 | 3.71
80 | O=C(COc1ccc(S(=O)(=O)N2CCOCC2)cc1Cl)N1CCCC1 | 17
81 | Cc1cc2oc(=O)cc(CN3CCCCC3C)c2cc1C (stereo not shown) | 12.4
82 | COc1ccc(CC(=O)NCc2nnc(SCC(=O)Nc3nccs3)n2C)cc1 | 17.3
83 | CCOC(=O)N1CCC(NC(=O)C(C)n2c3ccccc3c3cnn(C)c(=O)c32)CC1 (stereo not shown) | -1.12
84 | Cc1nnc(NC(=O)CSc2nnc3c(n2)[nH]c2ccc(Br)cc23)s1 | 22.6
85 | Cc1cc(NC(=O)C2CC2)ncc1NC(=O)C12CC3CC(CC(C3)C1)C2 | -9.69
86 | CC(C)C[C@H](NC(=O)NCc1ccccc1Cl)C(=O)O | -1.49
87 | CC(/C=C/c1cccs1)=C\C(=O)O | 25.3
88 | CC1=NN(C(C#N)c2cccc([N+](=O)[O-])c2)C(C)(C)C1 (stereo not shown) | -11.2
